# Reference: PubChem BioAssay AID360 (National Center for Advancing Translational Sciences (NCATS), 2006)
# Among all 48,000 compounds or so, about 550 (1.1%) were called active. Not shown: some 4% with an inconclusive outcome. Cut-off read from the data, not from the text of the source: active = potency below about 15 µM; inconclusive = mostly about 16 µM to 33 µM; inactive = weaker than that. The list shows a part of the results.
# Target: Lysosomal acid glucosylceramidase (Homo sapiens) (UniProt P04062)
# Experiment: Glucocerebrosidase;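 note: the screen sought inhibitors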
# Conditions: purified enzyme, resorufin glucoside fluorescence (screen aimed at inhibitors), 20 min
# From the text: NCGC Assay Overview: Beta-glucocerebrosidase catalyzes the hydrolysis of beta-glucocerebroside to glucose and ceramide. The inherited deficiency of beta-glucocerebrosidase results in Gaucher disease, which is characterized by a wide variety of symptoms including hepatosplenomegaly, anemia, thrombocytopenia, bony lesions and bone marrow infiltration with characteristic storage cells, known as Gaucher cells. There are also forms of the disorder affecting the central nervous system. Patients with the same genotypes can manifest with diverse clinical presentations and it is believed that improper folding and trafficking of beta-glucocerbrosidase may contribute to the phenotypes observed. Low molecular weight molecules, acting as chaperones, may potentially restore trafficking of misfolded beta-glucocerebrosidase from the endoplasmic reticulum to the lysosomes, thereby enhancing functional lysosomal beta-glucocerebrosidase activity. Using normal beta-glucocerebrosidase, an assay was developed to screen for small molecule inhibitors that could potentially act as molecular chaperones on the mutant forms [developed with NIH investigator Dr. Ellen Sidransky's laboratory]. Two pro-fluorescent substrates were chosen for two screens against a small molecule library. One beta-glucocerebrosidase assay used Resorufin beta-D-Glucopyranoside (Marker Gene Technology Inc.), generating a red fluorescent product. The second assay used Fluorescein di-beta-D-Glucopyranoside, generating a blue fluorescent product. […] The IC50 values of Conduritol B Epoxide, a known glucocerebrosidase inhibitor, were determined to be 87.5 uM and 117 uM, respectively. The use of two difference pro-fluorescent substrates in the screens helped to eliminate false positives. All compounds were screened in a titration series resulting in AC50s (e.g., IC50s or EC50s).
# NCGC Assay Protocol Summary: Both enzyme and substrate were diluted in buffer composed of 50mM citric acid/KH2PO4, 10mM sodium taurocholate and 0.01% tween-20 at pH 5.9. The final concentration of the enzyme was 0.2 nM in both assays. The compound library was titrated in 7 to 15 concentrations for the primary screens with a final concentration ranging from 0.6 nM to 50 uM. This particular assay protocol is for the "red" substrate, and it was performed in 1536-well plate format as follows: Red fluorescence substrate assay: 2 uL enzyme 23 nL compound 1 uL substrate (final concentration of 30 uM) Incubate at room temperature (RT) for 20 minutes Read the plate in Viewlux plate reader (Ex=548(7) and Em=600(10)).
# Potency is the fitted concentration of half-maximal effect.
# Chain of UniProt P04062 (P04062 whole entry, looked up): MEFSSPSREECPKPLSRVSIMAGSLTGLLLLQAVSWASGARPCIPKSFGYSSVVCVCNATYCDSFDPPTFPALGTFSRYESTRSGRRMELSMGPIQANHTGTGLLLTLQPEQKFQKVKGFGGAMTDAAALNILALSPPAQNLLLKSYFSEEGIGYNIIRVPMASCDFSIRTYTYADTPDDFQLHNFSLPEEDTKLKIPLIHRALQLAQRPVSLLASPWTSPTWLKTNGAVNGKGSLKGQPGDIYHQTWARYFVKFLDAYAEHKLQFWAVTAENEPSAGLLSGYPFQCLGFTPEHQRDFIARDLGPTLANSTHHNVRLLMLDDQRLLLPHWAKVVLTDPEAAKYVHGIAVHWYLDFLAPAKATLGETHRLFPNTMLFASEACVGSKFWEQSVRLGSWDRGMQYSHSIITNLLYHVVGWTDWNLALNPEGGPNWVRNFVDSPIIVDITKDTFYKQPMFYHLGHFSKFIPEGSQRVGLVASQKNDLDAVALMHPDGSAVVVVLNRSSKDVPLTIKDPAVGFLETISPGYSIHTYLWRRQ
row,SMILES,Potency
1,O=C1CC(c2ccccc2)n2nc(NC(=O)c3cccnc3)nc2N1 (stereo unspecified),inactive: > 76.9 µM
2,Nc1cc(-c2ccccc2)ccc1O,inactive: > 76.9 µM
3,O=C(CN(Cc1ccco1)C(=O)CNS(=O)(=O)c1ccc(Cl)cc1)NCc1ccc(F)cc1,inactive: > 76.9 µM
4,CCOc1ccccc1NC(=O)C1CCCN(S(=O)(=O)c2cccc3nsnc23)C1 (stereo unspecified),inactive: > 76.9 µM
5,COc1cc2ccccc2cc1C(=O)Nc1ccccc1N1CCN(S(C)(=O)=O)CC1,inactive: > 76.9 µM
6,C=CCn1nnc2sc3c(c2c1=O)CCC(C)C3 (stereo unspecified),inactive: > 76.9 µM
7,CC(=O)N1CCN(c2ccc(NCc3ccccc3)cc2)CC1,active: 13 µM
8,Cn1c(CCNC(=O)c2ccccc2F)nnc1SCc1nc2ccccc2c(=O)[nH]1,inactive: > 76.9 µM
9,c1cncc(-c2nnc3n2CCC3)c1,inactive: > 76.9 µM
10,CCOC(=O)C1(Cc2ccccc2)NC(c2ccccc2F)C2C(=O)N(CC)C(=O)C21 (stereo unspecified),inactive: > 76.9 µM
11,Cn1c(CN2CCCCC2)nc2cc(NC(=O)c3ccc(F)cc3)ccc21,inactive: > 76.9 µM
12,COCCn1nnnc1C(c1cc2c(C)cc(C)cc2[nH]c1=O)N1CCCCCC1 (stereo unspecified),inactive: > 76.9 µM
13,O=C(CCn1nnc2ccccc21)Nc1nnc(Cc2ccccc2)s1,inactive: > 76.9 µM
14,Cc1ccc(CNC(=O)CCS(=O)(=O)c2cccc3nsnc23)cc1,inactive: > 76.9 µM
15,COCC(=O)Nc1ccccc1C(=O)Nc1ccc(OC)cc1,inactive: > 76.9 µM
16,CS(=O)(=O)N(Cc1ccco1)Cc1ccccc1Cl,inactive: > 76.9 µM
17,CC(=O)Nc1cccc(NC(=O)C2CC(=O)N(c3ccc(C)cc3)C2)c1 (stereo unspecified),inactive: > 76.9 µM
18,CCN(CC)S(=O)(=O)c1ccc(C(=O)NCCc2cc3c(OC)ccc(OC)c3[nH]c2=O)cc1,inactive: > 76.9 µM
19,NC(=O)NC(=O)COC(=O)CCCc1c[nH]c2ccccc12,inactive: > 76.9 µM
20,CCOc1cc(C2C(C#N)=C(N)Oc3n[nH]c(C)c32)ccc1OCCN1CCOCC1 (stereo unspecified),inactive: > 76.9 µM
21,CCn1c(Cc2ccccc2)nnc1SCC(=O)Nc1ccccc1,inactive: > 76.9 µM
22,Cc1cccc(N2CCCn3c2nc2c3c(=O)n(CCN3CCOCC3)c(=O)n2C)c1,inactive: > 76.9 µM
23,CSc1ccc(S(=O)(=O)NCc2ccccc2Cl)cc1,inactive: > 76.9 µM

row,SMILES,Potency
1,COc1ccccc1NC(=O)N1CCC(C(=O)c2ccc(F)cc2)CC1,inactive: > 76.9 µM
2,c1ccc(-n2c(-c3ccncc3)nnc2-c2cccs2)cc1,inactive: > 76.9 µM
3,COc1cccc(NS(=O)(=O)c2ccc3c(c2)n(C)c(=O)c(=O)n3C)c1,inactive: > 76.9 µM
4,COc1cccc(Oc2c(C)oc3c(CN4CCOCC4)c(O)ccc3c2=O)c1,inactive: > 76.9 µM
5,C=CCn1c(CC(=O)Nc2cccc(OC)c2)nnc1SCC(=O)NC1CCCCC1,inactive: > 76.9 µM
6,Cc1ccc(C(=O)CC2(O)C(=O)N(CN3CCOCC3)c3ccccc32)cc1 (stereo unspecified),inactive: > 76.9 µM
7,COc1cc(C(=O)OC(C)CN2CCN(C)CC2)cc(OC)c1OC (stereo unspecified),inactive: > 76.9 µM
8,CN(C)C(=O)c1ccc(NC(=O)c2cncc(Br)c2)cc1,inactive: > 76.9 µM
9,COc1cccc(NC(=O)CN(c2ccc(C)cc2)S(=O)(=O)c2c(C)nn(C)c2C)c1,inactive: > 76.9 µM
10,Cn1c(COc2ccc(Cl)cc2)nnc1SCC(=O)NC1CCCCC1,inactive: > 76.9 µM
11,COc1ccc(C)cc1S(=O)(=O)N(C)CC(=O)NCc1ccco1,inactive: > 76.9 µM
12,COc1ccc(C2c3c(oc4ccc(C)cc4c3=O)C(=O)N2c2cc(C)ccn2)cc1OC (stereo unspecified),inactive: > 76.9 µM
13,Cn1c(=O)oc2cc(S(=O)(=O)N3CCC(C(=O)Nc4ccc(OC(F)(F)F)cc4)CC3)ccc21,inactive: > 76.9 µM
14,O=C(CN1CCN(c2ccc(F)cc2)CC1)NCC1CCCO1 (stereo unspecified),inactive: > 76.9 µM
15,O=C(O)c1cccc(N2C(=O)c3cccnc3C2=O)c1,inactive: > 76.9 µM
16,O=C(CC1C(=O)NCCN1C(=O)Nc1ccccc1)Nc1cccc(C(F)(F)F)c1 (stereo unspecified),inactive: > 76.9 µM
17,CCc1cccc2c(C#N)cn(CC(=O)NCc3ccco3)c12,inactive: > 76.9 µM
18,Cc1ccc(SC/C(O)=C(\C#N)c2nc3ccccc3n2C)cc1,inactive: > 76.9 µM
19,CC(NC(=O)c1cccs1)C(c1cccs1)N1CCN(Cc2ccccc2)CC1 (stereo unspecified),inactive: > 76.9 µM
20,C[N+](C)(C)CCNC(=O)c1c(O)c2c([nH]c1=O)CCCC2,inactive: > 76.9 µM
21,COc1ccc2oc(=O)cc(C)c2c1,inactive: > 76.9 µM
22,CCCCn1c(N)c(N(CCC(C)C)C(=O)CSc2nnc3ccccn23)c(=O)[nH]c1=O,inactive: > 76.9 µM
23,Cc1ccc(-c2noc(CCC(=O)N3CCCC3)n2)cc1,inactive: > 76.9 µM

row,SMILES,Potency
1,O=C(c1ccco1)N1CCN(c2ncnc3scc(-c4cccs4)c23)CC1,inactive: > 76.9 µM
2,O=c1[nH]c(CN2CCN(C/C=C/c3ccccc3)CC2)nc2cc(Cl)ccc12,inactive: > 76.9 µM
3,O=C(CCN1CCN(c2ccccn2)CC1)Nc1ccc(F)cc1,inactive: > 76.9 µM
4,CCCn1nc(C(=O)NCCN2CCOCC2)c2ccccc2c1=O,inactive
5,Cn1cnnc1SCc1ccccc1Br,inactive: > 76.9 µM
6,Cn1c(=O)c2c(nc(NCCNC(=O)c3ccco3)n2Cc2ccccc2Cl)n(C)c1=O,inactive: > 76.9 µM
7,Cc1cccc2cc3c(NC(=O)CC(C)C)nn(C)c3nc12,inactive: > 76.9 µM
8,CN1CCN(Cc2nc3c(c(=O)n(C)c(=O)n3C)n2CCCc2ccccc2)CC1,inactive: > 76.9 µM
9,O=C(Cc1c(F)cccc1Cl)N1CCN(C(=O)c2ccco2)CC1,inactive: > 76.9 µM
10,Cc1nc(-c2ccc(C(=O)O)cc2)cs1,inactive: > 76.9 µM
11,O=C(COc1cccc(-n2cnnn2)c1)NCCC1=CCCCC1,inactive: > 76.9 µM
12,O=c1cnnc(SCCc2ccccc2)[nH]1,inactive: > 76.9 µM
13,CCCn1nnc(NC(=O)c2ccc(Br)cc2)n1,inactive: > 76.9 µM
14,CCC(C)NC(=O)C1CCN(S(=O)(=O)c2cccnc2)CC1 (stereo unspecified),inactive: > 76.9 µM
15,CN(Cc1ccccc1)Cc1nc2c(c(=O)n(C)c(=O)n2C)n1Cc1ccc(F)cc1,inactive: > 76.9 µM
16,CSc1ncccc1C(=O)OCn1nnc2ccccc2c1=O,inactive: > 76.9 µM
17,COc1ccc(O)c(-c2[nH]ncc2C(=O)c2ccccc2C)c1,inactive: > 76.9 µM
18,Cc1cc(C)n(-c2nc3ccccc3n3cnnc23)n1,inactive: > 76.9 µM
19,CCCCn1c(CN(C)Cc2ccccc2)nc2c1c(=O)n(C)c(=O)n2C,inactive: > 76.9 µM
20,Cc1ccc(-c2csc(N(CC3CCCO3)C(=O)c3ccco3)n2)cc1 (stereo unspecified),inactive: > 76.9 µM
21,CC1CN(Cc2nc3c(c(=O)n(C)c(=O)n3C)n2CCCO)CC(C)O1 (stereo unspecified),inactive: > 76.9 µM
22,CN(C)c1ccc(C2N(C(=O)N3CCOCC3)CCN2S(=O)(=O)c2ccccc2)cc1 (stereo unspecified),inactive: > 76.9 µM
23,COc1cccc(C(=O)N2CCCc3ccccc32)c1,inactive: > 76.9 µM

row,SMILES,Potency
1,Cc1ccc(NCc2nnc3n2CCCCC3)cc1,inactive: > 76.9 µM
2,c1csc(-c2nn3c(-c4ccncc4)nnc3s2)c1,inactive: > 76.9 µM
3,CC1(C)COCN1S(=O)(=O)c1ccc(C(=O)Nc2nnc(-c3ccc(Cl)s3)o2)cc1,inactive: > 76.9 µM
4,Cc1cc(C(=O)CSc2nnc(Cc3ccccc3)o2)c(C)n1Cc1ccc2c(c1)OCO2,active: 3.97 µM
5,Cc1cccc(OCC(=O)Nc2ccccc2N2CCN(C(=O)C(C)C)CC2)c1C,inactive: > 76.9 µM
6,O=C(NCCN1CCN(C(=O)c2cc3ccccc3oc2=O)CC1)c1cc2ccccc2oc1=O,inactive: > 76.9 µM
7,Cc1cc(NC(=O)c2sc(Nc3cccc(C(F)(F)F)c3)nc2N)no1,active: 11.8 µM
8,COc1ccc(C)cc1NS(=O)(=O)c1cccc2nonc12,inactive: > 76.9 µM
9,O=C1CC(c2ccc(F)cc2)Cc2nc(N3CCc4ccccc43)ncc21 (stereo unspecified),inactive: > 76.9 µM
10,Cc1sc2ncn3c(C)nnc3c2c1C,inactive: > 76.9 µM
11,COc1cccc(CNC(=O)CCS(=O)(=O)c2cccc3nsnc23)c1,inactive: > 76.9 µM
12,O=C(Cn1nc(C(F)(F)F)c2c1CCCC2)NC1CCCC1,inactive: > 76.9 µM
13,CCCCCC(=O)Nc1cccc(-c2nc3ncccc3o2)c1,inactive
14,Cc1noc(C)c1C(=O)N1CCc2ccccc21,inactive: > 76.9 µM
15,COc1ccc(N2C(=O)NC3CC2(C)Oc2ccc(Cl)cc23)cc1OC (stereo unspecified),inactive: > 76.9 µM
16,COc1ccc2nc(NC3=NCCC3)sc2c1,inactive: > 76.9 µM
17,Cc1ccc(C2C3=C(CC(C)(C)CC3=O)N(CCN3CCOCC3)C3=C2C(=O)CC(C)(C)C3)cc1,inactive: > 76.9 µM
18,CC(C)(C)NC(=O)Nc1ccccc1C(N)=O,inactive: > 76.9 µM
19,O=C(CSc1ccccc1)N1CCN(c2ccccc2)CC1,inactive: > 76.9 µM
20,Cc1ccc(Nc2cccccc2=O)cc1,inactive: > 76.9 µM
21,COc1ccc(-c2ccc(=O)n(CC(=O)NCc3ccco3)n2)cc1,inactive: > 76.9 µM
22,Cc1cnc(C)c(N2CCC(C(=O)NCc3ccco3)CC2)n1,inactive: > 76.9 µM
